Whole data set: some 110,000 compounds, median “z-score” near -0.1, cut for the highest 2% near 2. This is one part of the list.
Target: Metabotropic glutamate receptor 8 (Rattus norvegicus) (UniProt P70579)
Assay: mGluR8 Gi/Go-coupled signaling modulation – cell-based, rat, thallium flux, HTS, primary screen (AID 488969)
Conditions: HEK293 rat mGluR8, GIRK (G protein-gated inwardly rectifying potassium channel) thallium flux, FluoZin2; at 10 µM; stronger effect = higher value; submaximal glutamate (EC20) added with thallium

UniProt P70579, sequence (P70579 whole entry, looked up): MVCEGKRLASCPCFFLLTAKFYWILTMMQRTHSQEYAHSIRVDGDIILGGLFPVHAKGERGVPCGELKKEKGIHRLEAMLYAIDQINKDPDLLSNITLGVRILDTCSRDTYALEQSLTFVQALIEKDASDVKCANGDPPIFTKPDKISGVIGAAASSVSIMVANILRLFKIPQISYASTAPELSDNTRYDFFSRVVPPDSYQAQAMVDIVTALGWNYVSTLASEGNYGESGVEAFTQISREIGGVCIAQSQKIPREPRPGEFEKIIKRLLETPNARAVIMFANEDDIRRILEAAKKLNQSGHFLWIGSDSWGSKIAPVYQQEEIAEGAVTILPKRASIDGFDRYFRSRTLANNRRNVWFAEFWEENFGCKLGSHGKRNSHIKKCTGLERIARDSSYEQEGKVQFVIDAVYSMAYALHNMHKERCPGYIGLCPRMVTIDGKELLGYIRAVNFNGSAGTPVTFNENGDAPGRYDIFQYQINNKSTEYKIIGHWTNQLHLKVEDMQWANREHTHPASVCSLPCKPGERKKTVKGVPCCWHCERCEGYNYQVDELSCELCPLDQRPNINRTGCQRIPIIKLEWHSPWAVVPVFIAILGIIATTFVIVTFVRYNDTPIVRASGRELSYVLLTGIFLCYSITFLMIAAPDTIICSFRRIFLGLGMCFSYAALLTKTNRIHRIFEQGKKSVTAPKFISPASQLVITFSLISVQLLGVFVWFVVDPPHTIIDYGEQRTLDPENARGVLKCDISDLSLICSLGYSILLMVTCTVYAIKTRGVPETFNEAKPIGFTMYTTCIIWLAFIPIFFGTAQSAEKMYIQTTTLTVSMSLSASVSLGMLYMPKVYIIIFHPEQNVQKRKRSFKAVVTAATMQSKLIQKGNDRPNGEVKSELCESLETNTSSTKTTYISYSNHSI

**Q.** `CCCCC(=O)Nc1ccc(NC(=S)NC(=O)CC)cc1OC` was tested. Which z-score did it give?
**A.** -0.168

**Q.** How did the z-score turn out when `COC(=O)Oc1ccc(/C=N/NC(=O)CSCc2ccccc2Br)cc1OC` was run?
**A.** -0.071

**Q.** Which z-score does the source give for `CCCn1c(O)c(CN2CCCCC2)c(C)c(C#N)c1=O` here?
**A.** -0.183

**Q.** With `CCc1ccc(Nc2ccc(S(=O)(=O)N3CCOCC3)cc2[N+](=O)[O-])cc1` as the compound, how does the z-score read?
**A.** 0.0428

**Q.** With `CC(C)Oc1ccc(/C(O)=C2/C(=O)C(=O)N(CCN(C)C)C2c2ccco2)cc1` (configuration not stated) as the compound, how does the z-score read?
**A.** 0.648

**Q.** With `CC(c1ccccc1F)n1cc(C(=O)NCCCn2ccnc2)nn1` (configuration not stated) as the compound, how does the z-score read?
**A.** -0.244

**Q.** With `N#Cc1c(-c2ccccc2)nc(-c2ccccc2)[nH]c1=O` as the compound, how does the z-score read?
**A.** -0.54

**Q.** For `CCCOc1ccc2oc(=O)c3c(c2c1)CCCN3C(=O)CN1CCCC(C(=O)OCC)C1` (configuration not stated), which z-score is on record?
**A.** -0.518

**Q.** `O=c1nc(-c2ccccc2)n(-c2ccccc2)c2ncccc12` was tested. Which z-score did it give?
**A.** -0.171

**Q.** Which z-score does the source give for `COc1ccc(OC)c(NC(=O)c2ccccc2SC)c1` here?
**A.** 0.39

**Q.** How did the z-score turn out when `CC(C)Cc1nc2oc3c(N4CCN(C)CC4)ncnc3c2c2c1CCCC2` was run?
**A.** -0.0108

**Q.** How did the z-score turn out when `NNC(=O)CN1C(c2cccc(Cl)c2)=Nc2ccc(Br)cc2C1c1ccccc1` (configuration not stated) was run?
**A.** -0.63

**Q.** Which z-score does the source give for `N#Cc1nc(-c2ccco2)oc1N1CCN(c2ccccc2)CC1` here?
**A.** -0.599

**Q.** `O=C(COC(=O)c1ccccn1)NC12CC3CC(CC(C3)C1)C2` was tested. Which z-score did it give?
**A.** -0.209

**Q.** For `O=C(CCn1c(=O)oc2ccccc21)Nc1nccs1`, which z-score is on record?
**A.** -0.469

**Q.** Which z-score does the source give for `O=S(=O)(N1CCOCC1)n1cnc2ccccc21` here?
**A.** -0.00444

**Q.** `COc1ccc(C(=O)OCC(=O)NC(C)(C)C)cc1[N+](=O)[O-]` was tested. Which z-score did it give?
**A.** -0.195

**Q.** With `CCCN(CCC)S(=O)(=O)c1ccc(C(=O)Nc2nc(-c3ccccc3)c(C(=O)OCC)s2)cc1` as the compound, how does the z-score read?
**A.** -0.243

**Q.** For `C=CCn1c(SCc2nc3cc(C(=O)OC)ccc3c(=O)[nH]2)nc2sc(CC)cc2c1=O`, which z-score is on record?
**A.** -0.336

**Q.** How did the z-score turn out when `COCCn1c(-c2ccsc2)nc2c1c(=O)[nH]c(=O)n2CC(C)C` was run?
**A.** -0.162

**Q.** How did the z-score turn out when `Nc1c(-c2ccccc2)cnn1-c1cccc(C(F)(F)F)c1` was run?
**A.** 0.455

**Q.** For `CCCOc1nc2c(c(=O)n(C)c(=O)n2C)n1Cc1cccc2ccccc12`, which z-score is on record?
**A.** -1.58

**Q.** How did the z-score turn out when `Cc1ccc(NS(=O)(=O)c2cc(C(=O)O)ccc2Cl)c(C)c1` was run?
**A.** 0.297

**Q.** For `Cc1[nH]c2ccccc2c(=O)c1SC(F)(F)C(F)C(F)(F)F` (configuration not stated), which z-score is on record?
**A.** -0.124

**Q.** How did the z-score turn out when `COc1cc(-c2ccc(NC(=O)c3ccc(C)cc3)c(OC)c2)ccc1NC(=O)c1ccc(C)cc1` was run?
**A.** 0.305

**Q.** For `CC(C)NC(=O)C1(c2ccccc2)CC1(Cl)Cl` (configuration not stated), which z-score is on record?
**A.** -0.174

**Q.** Which z-score does the source give for `COc1ccc2[nH]c(=O)c(CN(C)C(=O)COc3ccccc3)cc2c1` here?
**A.** -0.067

**Q.** For `CCCC(C)C(=O)Nc1ccc(C(N)=O)cc1` (configuration not stated), which z-score is on record?
**A.** 0.643

**Q.** For `COC(=O)c1ccc2c(c1O)C(=O)c1ccccc1C2=O`, which z-score is on record?
**A.** -0.118

**Q.** For `CCOC(=O)C(Cc1ccc(NC(=O)/C(=C/c2ccc(OC(C)=O)cc2)NC(C)=O)cc1)N1C(=O)c2ccccc2C1=O` (configuration not stated), which z-score is on record?
**A.** -0.122

**Q.** For `N#CC1=C(N)OC2=C(CCc3ccccc32)C1c1ccccc1Cl` (configuration not stated), which z-score is on record?
**A.** -0.697

**Q.** `COC(=O)CC1=C(C(=O)OC)C(c2cccc(OCC(N)=O)c2)C(C#N)=C(N)O1` (configuration not stated) was tested. Which z-score did it give?
**A.** 0.281

**Q.** `O=C(O)C1C2C=CC(C2)C1C(=O)NC(c1ccccc1)c1ccccc1` (configuration not stated) was tested. Which z-score did it give?
**A.** -0.597

**Q.** With `CCc1ccc(CNc2ccc(N3CCN(C(C)=O)CC3)cc2)cc1` as the compound, how does the z-score read?
**A.** 0.968

**Q.** How did the z-score turn out when `Cn1ncc2c(NNC(=O)c3ccccc3Cl)ncnc21` was run?
**A.** 0.3

**Q.** With `CCCCSC(=S)N(C)C1CCS(=O)(=O)C1` (configuration not stated) as the compound, how does the z-score read?
**A.** -0.328

**Q.** With `CCOc1ccc(NC(=NCc2ccc3c(c2)OCO3)SC2CC(=O)N(c3ccccc3)C2=O)cc1` (configuration not stated) as the compound, how does the z-score read?
**A.** 0.522

**Q.** How did the z-score turn out when `CC(C)Nc1nc(Oc2cccc(Cl)c2Cl)cc(C(F)(F)F)n1` was run?
**A.** 0.0496

**Q.** For `Cc1cnn(-c2cc(N/N=C/c3ccc(F)cc3)ncn2)c1`, which z-score is on record?
**A.** 0.269

**Q.** For `CCNC(=O)CN(c1ccccc1OC)S(=O)(=O)c1cccs1`, which z-score is on record?
**A.** -0.183

**Q.** With `CCOc1cc(NC(=O)CC(C)C)c(OCC)cc1NC(=O)CCn1nnc2ccccc21` as the compound, how does the z-score read?
**A.** -0.418

**Q.** With `Cc1ccc(N2C(=O)C3C(c4ccccc4)(C2=O)C3(c2ccccc2)c2ccccc2)cc1` (configuration not stated) as the compound, how does the z-score read?
**A.** 0.0494

**Q.** With `CN(C)/C=C1/Sc2ccccc2C1=O` as the compound, how does the z-score read?
**A.** -0.0219

**Q.** Which z-score does the source give for `CC(C(=O)O)n1nc2ccccc2n1` (configuration not stated) here?
**A.** -0.97

**Q.** Which z-score does the source give for `CS(=O)(=O)Nc1nnc(SCC(=O)Nc2cccc([N+](=O)[O-])c2)s1` here?
**A.** 0.477

**Q.** Which z-score does the source give for `O=C(/C=C/c1ccc2c(c1)OCO2)Nc1nc(-c2ccccc2)cs1` here?
**A.** -0.421

**Q.** For `CCOC(=O)c1cnc2ccc(C(=O)OC)cc2c1NCc1ccco1`, which z-score is on record?
**A.** 0.0624

**Q.** With `CCC(=O)N1CC2(CC(c3cccc([N+](=O)[O-])c3)=NO2)C[C@H]1C(=O)NCC(N)=O` (some centres not stated) as the compound, how does the z-score read?
**A.** 0.0194

**Q.** With `COCc1cc(C)nc(Nc2ccc(C)cc2C)c1C#N` as the compound, how does the z-score read?
**A.** -0.225

**Q.** Which z-score does the source give for `CC(C)CC(NC(=O)c1ccc(Cl)cc1)C(=O)OCc1cc([N+](=O)[O-])cc2c1OCOC2` (configuration not stated) here?
**A.** -0.288

**Q.** How did the z-score turn out when `CCOc1cc(CNCCO)c(Cl)cc1OCC(=O)NCCc1ccccc1` was run?
**A.** -0.0763

**Q.** Which z-score does the source give for `CCOc1ccc(S(=O)(=O)Nc2nc3cc(OC)ccc3s2)cc1` here?
**A.** -0.168

**Q.** Which z-score does the source give for `Cc1sc2nc(CN3CCCCC3)nc(Cl)c2c1C` here?
**A.** -0.502

**Q.** `Cc1ccc(NS(=O)(=O)c2ccc(NC(=O)c3ccc(Br)o3)cc2)c(C)c1` was tested. Which z-score did it give?
**A.** 0.578

**Q.** With `N#Cc1c(NC(=O)CSc2nc(-c3ccco3)cc(C(F)(F)F)n2)sc2c1CCCC2` as the compound, how does the z-score read?
**A.** 0.333

**Q.** Which z-score does the source give for `COC(=O)c1cc(-c2ccccc2)n[nH]1` here?
**A.** 0.823

**Q.** Which z-score does the source give for `COc1ccc(C)cc1S(=O)(=O)N(C)CC(=O)Nc1ccc2c(c1)OCCO2` here?
**A.** -0.335

**Q.** For `COc1ccc(/C=C(/NC(=O)c2ccccc2)C(=O)N/N=C/c2sccc2C)cc1`, which z-score is on record?
**A.** -0.284

**Q.** Which z-score does the source give for `COC(=O)CSc1ncccc1-c1nc2ccccc2[nH]1` here?
**A.** -0.428

**Q.** `CCSc1nnc(NC(=O)CSc2nnc(-c3c[nH]c4ccccc34)n2C)s1` was tested. Which z-score did it give?
**A.** -0.196

**Q.** `O=C(C1=C[C@@H]2[C@H]3C(=O)N(c4ccc(Cl)cc4)C(=O)[C@H]3[C@@H](C(=O)c3ccc(Cl)cc3)N2C=C1)c1ccccc1` was tested. Which z-score did it give?
**A.** 0.212

**Q.** `O=C(/C=C1\NC2(CCCC2)Cc2ccccc21)C(=O)N/N=C/c1ccccc1O` was tested. Which z-score did it give?
**A.** -0.29

**Q.** With `COc1ccccc1N(C)S(=O)(=O)c1ccc(C(=O)OCC(=O)NCCC2=CCCCC2)cc1` as the compound, how does the z-score read?
**A.** 0.0923

**Q.** `CCOC(=O)N1CCN(C(=O)CSc2nnc(CNC(=O)c3ccccc3F)o2)CC1` was tested. Which z-score did it give?
**A.** -0.16

**Q.** With `Cc1cccc(CS(=O)(=O)Cc2ccc(C(=O)O)o2)c1` as the compound, how does the z-score read?
**A.** 0.861

**Q.** For `Cc1nc2cc(C(F)(F)F)ccc2n1C1CCN(CC(=O)N2CCOCC2)CC1`, which z-score is on record?
**A.** -0.233

**Q.** Which z-score does the source give for `Cc1cc(Cl)ccc1NC(=S)N1CCN(C(=O)C2CCCO2)CC1` (configuration not stated) here?
**A.** -0.0233
